# Measured values from article PMC9880526.
# “And” between values parts separate entries of the source, which are not always exact repeats. Identical values can stand only once.
# T1: properdin (from normal human plasma or serum) (human), P27918
# T1 chain: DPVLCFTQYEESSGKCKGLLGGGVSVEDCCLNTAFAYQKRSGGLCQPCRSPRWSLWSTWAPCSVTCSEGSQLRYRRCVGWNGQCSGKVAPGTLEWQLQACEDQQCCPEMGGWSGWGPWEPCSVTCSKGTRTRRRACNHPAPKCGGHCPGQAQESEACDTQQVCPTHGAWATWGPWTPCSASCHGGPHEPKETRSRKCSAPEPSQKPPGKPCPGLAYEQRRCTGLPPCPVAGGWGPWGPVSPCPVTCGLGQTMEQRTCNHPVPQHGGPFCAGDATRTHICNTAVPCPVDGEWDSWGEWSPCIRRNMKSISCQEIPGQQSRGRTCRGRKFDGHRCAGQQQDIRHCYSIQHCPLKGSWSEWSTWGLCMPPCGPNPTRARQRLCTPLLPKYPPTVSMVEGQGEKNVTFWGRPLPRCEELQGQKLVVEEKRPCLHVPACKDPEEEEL
# T2: neutrophil-derived properdin (human (endogenous in neutrophils of donors)), P27918
# T2 chain: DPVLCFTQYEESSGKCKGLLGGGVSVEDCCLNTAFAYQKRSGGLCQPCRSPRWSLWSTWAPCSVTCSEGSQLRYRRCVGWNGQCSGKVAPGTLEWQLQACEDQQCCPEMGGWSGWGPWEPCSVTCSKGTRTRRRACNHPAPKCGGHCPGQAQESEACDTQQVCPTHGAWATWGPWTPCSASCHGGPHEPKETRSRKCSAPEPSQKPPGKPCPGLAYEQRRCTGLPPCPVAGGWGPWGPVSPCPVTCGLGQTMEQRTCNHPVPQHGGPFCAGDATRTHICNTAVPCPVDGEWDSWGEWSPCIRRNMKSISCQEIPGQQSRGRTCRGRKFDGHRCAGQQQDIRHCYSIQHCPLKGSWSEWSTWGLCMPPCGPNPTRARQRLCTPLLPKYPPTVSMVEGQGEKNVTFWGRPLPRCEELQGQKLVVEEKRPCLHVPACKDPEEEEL
# Assays:
# Conditions in all cases: remark: other sources report otherwise
# [1] = target: T1, properdin (from normal human plasma or …); assay: SEC; normal human serum diluted to 4 ug or 150 ng properdin with 1% BSA and 20 mM EDTA in PBS, same column; properdin in the fractions quantified by sandwich ELISA; oligomer ratio from summed fractions
# [2] = target: T1, properdin (from normal human plasma or …); assay: as above
# [3] = target: T1, properdin (from normal human plasma or …); assay: SEC; 200 ug purified properdin in PBS on a Phenomenex BioSep SEC s4000 column, 0.3 ml/min; properdin in the fractions quantified by sandwich ELISA; oligomer ratio from summed fractions
# [4] = target: T2, neutrophil-derived properdin (human …); assay: SEC; supernatant of PMA-activated neutrophils diluted to 4 ug or 150 ng properdin with 1% BSA and 20 mM EDTA in PBS, same column; properdin in the fractions quantified by sandwich ELISA; oligomer ratio from summed fractions
Binder,percent of properdin as P2 (P4:P3:P2 ratio) [1] [%],percent of properdin as P3 (P4:P3:P2 ratio) [1] [%],percent of properdin as P4 (P4:P3:P2 ratio) [1] [%],stoichiometry N [1],percent of properdin as P2 (P4:P3:P2 ratio) [2] [%],percent of properdin as P3 (P4:P3:P2 ratio) [2] [%],percent of properdin as P4 (P4:P3:P2 ratio) [2] [%],percent of properdin as P2 (P4:P3:P2 ratio) [3] [%],percent of properdin as P3 (P4:P3:P2 ratio) [3] [%],percent of properdin as P4 (P4:P3:P2 ratio) [3] [%],stoichiometry N [3],"percent of properdin as P2 (P4:P3:P2 ratio), average of 5 donors [4] [%]","percent of properdin as P3 (P4:P3:P2 ratio), average of 5 donors [4] [%]","percent of properdin as P4 (P4:P3:P2 ratio), average of 5 donors [4] [%]",stoichiometry N [4]
"properdin (from normal human plasma or serum), P27918 28-469 (natural protein) DPVLCFTQYEESSGKCKGLLGGGVSVEDCCLNTAFAYQKRSGGLCQPCRSPRWSLWSTWAPCSVTCSEGSQLRYRRCVGWNGQCSGKVAPGTLEWQLQACEDQQCCPEMGGWSGWGPWEPCSVTCSKGTRTRRRACNHPAPKCGGHCPGQAQESEACDTQQVCPTHGAWATWGPWTPCSASCHGGPHEPKETRSRKCSAPEPSQKPPGKPCPGLAYEQRRCTGLPPCPVAGGWGPWGPVSPCPVTCGLGQTMEQRTCNHPVPQHGGPFCAGDATRTHICNTAVPCPVDGEWDSWGEWSPCIRRNMKSISCQEIPGQQSRGRTCRGRKFDGHRCAGQQQDIRHCYSIQHCPLKGSWSEWSTWGLCMPPCGPNPTRARQRLCTPLLPKYPPTVSMVEGQGEKNVTFWGRPLPRCEELQGQKLVVEEKRPCLHVPACKDPEEEEL",27,52,20,4 and 3 and 2,29,43,29,25,57,18,4 and 3 and 2,–,–,–,–
"neutrophil-derived properdin, P27918 28-469 (natural protein) DPVLCFTQYEESSGKCKGLLGGGVSVEDCCLNTAFAYQKRSGGLCQPCRSPRWSLWSTWAPCSVTCSEGSQLRYRRCVGWNGQCSGKVAPGTLEWQLQACEDQQCCPEMGGWSGWGPWEPCSVTCSKGTRTRRRACNHPAPKCGGHCPGQAQESEACDTQQVCPTHGAWATWGPWTPCSASCHGGPHEPKETRSRKCSAPEPSQKPPGKPCPGLAYEQRRCTGLPPCPVAGGWGPWGPVSPCPVTCGLGQTMEQRTCNHPVPQHGGPFCAGDATRTHICNTAVPCPVDGEWDSWGEWSPCIRRNMKSISCQEIPGQQSRGRTCRGRKFDGHRCAGQQQDIRHCYSIQHCPLKGSWSEWSTWGLCMPPCGPNPTRARQRLCTPLLPKYPPTVSMVEGQGEKNVTFWGRPLPRCEELQGQKLVVEEKRPCLHVPACKDPEEEEL",–,–,–,–,–,–,–,–,–,–,–,48,34,18,4 and 3 and 2
